We go through 56 sequences from the supplement of paper PMC11417369.

This is one part of the list.

This experiment relates to PF3D7_0420300 AP2 domain 1 (GST-tagged). Description: gcPBM binding intensity (ln(normalized median fluorescence intensity)); higher = stronger DNA binding. The essentials: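 Binding of GST-tagged P. falciparum DNA-binding domains, expressed in E. coli and used at about 25 μg on average, was carried out for 1 h in 1× PBS containing 1% milk, 0.2 mg/ml BSA, 0.5% salmon testes DNA and 0.03% Triton X-100. The target was an Agilent 4 × 180k array of primer-extended double-stranded 36-bp intergenic genomic probes plus negative controls, read with Alexa488 anti-GST antibody at 488 nm. Binding intensity is the highest Masliner-normalised natural-log median intensity across replicate spots of either probe orientation.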
On to “GTATCAAAAGAATACACACACACATACAGATATATA [CACACA_site5975]”, for which the “gcPBM binding intensity (ln)” value came to 10.1.

Turning to “TGATATTATATATATACACACATGTATGTATTTATA [CACACA_site4874]”, the “gcPBM binding intensity (ln)” value was determined as 9.43.

Consider “ATAAACAAACATAAATCTGATTTTAATTTTTTTAAG [CACACA_negctrl_site313]”, for which the “gcPBM binding intensity (ln)” value came out at 9.11.

On to “AAATATACAATATTCACACAAAAAAATACATTACAA [CACACA_site5004]”, for which the “gcPBM binding intensity (ln)” value came to 9.5.

As for “ATATATTTATATTGTACACACATTTATGCATATATA [CACACA_site7502]”, the “gcPBM binding intensity (ln)” value turned out to be 9.64.

Take “TTTCTTACAAAAGCTAGAGTTTTTTTTTTTTTTTTT [XGTACX_negctrl_site341]”: the “gcPBM binding intensity (ln)” value turned out to be 8.75.

Turning to “TGTTTTTATAAAATAAATAAATATATATATATATAT [CACACA_negctrl_site502]”, the “gcPBM binding intensity (ln)” value was found to be 8.86.

“TTAGTCCATATTTTTGCACACCATTTTTTTTTTTTT [CACACA_site3927]”: the “gcPBM binding intensity (ln)” value was found to be 9.67.

For “AGAATAAATATGCACACATGCATATATTTTTACACT [TGCATGCA_site893]”, the “gcPBM binding intensity (ln)” value is 9.43.

Regarding “ATCCTTAATATGAACACACAAATATATTGCACATAT [CACACA_site6230]”, the “gcPBM binding intensity (ln)” value is 9.52.

As to “TCTTTTTCATCTTTCAACAAAAAATAATATATGTGT [CACACA_negctrl_site866]”, the “gcPBM binding intensity (ln)” value is 9.24.

In the case of “TAAATTTGTGTTATTAAAAAAATGGTTTAAAAATGT [XGTACX_negctrl_site352]”, the “gcPBM binding intensity (ln)” value amounted to 9.14.

Regarding “CTCTAATTAATATTTGTACACACATATTTAACCTAC [CACACA_site9043]”, the “gcPBM binding intensity (ln)” value was found to be 9.63.

As for “TAACTTTATTTTCCTGTACACACATTTGACATATTA [CACACA_site9116]”, the “gcPBM binding intensity (ln)” value is 9.8.

“TCAAATTACGTAAGAACATGCGATATAAGAAATACG [TGCATGCA_site691]”: the “gcPBM binding intensity (ln)” value stood at 9.28.

On to “TATATATTAATCAAAGTGCAATAATAAAATAAAAGT [GTGCAC_site9490]”, for which the “gcPBM binding intensity (ln)” value worked out at 9.71.

Turning to “TTTATACAAAAGAACAGTACAATAAAGGATTTATGA [XGTACX_site811]”, the “gcPBM binding intensity (ln)” value worked out at 9.2.

As for “TAAATAAAATACAAATGTACATAAATAATAAATATA [XGTACX_site1813]”, the “gcPBM binding intensity (ln)” value was found to be 9.51.

As to “ATATAAAAAATATAAGGTACACATATATGTAGATAT [XGTACX_site6792]”, the “gcPBM binding intensity (ln)” value is 9.6.

For the sequence “AATTATTTTAAATATTGTACTATTACAGAATGGTGT [XGTACX_site5693]”, the “gcPBM binding intensity (ln)” value amounted to 9.19.

Consider “GGTTAAAAAAAGCATACACACTATCCTCTTTGCTCT [CACACA_site7246]”, for which the “gcPBM binding intensity (ln)” value worked out at 9.53.

Take “CTTTTTTATTTTTCAACACACATAATAAATTTCTAT [CACACA_site1037]”: the “gcPBM binding intensity (ln)” value amounted to 9.4.

Turning to “GAACCTTTAAAATACACACCCAAATCCTTTGAAATA [CACACA_site3630]”, the “gcPBM binding intensity (ln)” value was 9.3.

As to “ATATTTTACAAATGCACACATAATTTTTTTTTTTTT [CACACA_site2763]”, the “gcPBM binding intensity (ln)” value stood at 9.3.

As for “TTTTTTTTTATATATACACACAATAAATAAATATAA [CACACA_site2954]”, the “gcPBM binding intensity (ln)” value came out at 9.07.

As to “TACATAAATACATACATACACACATATATATATATA [CACACA_site2105]”, the “gcPBM binding intensity (ln)” value was found to be 9.56.

For “ATATATATATTGAAAAGTACATATATATATATATTA [XGTACX_site1560]”, the “gcPBM binding intensity (ln)” value is 9.21.

With “TGGATAATCAAAAATTGTACAAGTGTTGTTATTGGT [XGTACX_site8010]”, the “gcPBM binding intensity (ln)” value worked out at 9.44.

Regarding “ACCGGTGGAACGTTTTGTACATATATAATAATATAT [XGTACX_site2143]”, the “gcPBM binding intensity (ln)” value came out at 9.36.

With “CTTGGGAAGTATTCAGTGCAAAATATAAGCAGGTCA [GTGCAC_site9758]”, the “gcPBM binding intensity (ln)” value was 9.3.

With “AAAAGAAATAAGGATACACACTATTGATAAAAGTAG [CACACA_site4309]”, the “gcPBM binding intensity (ln)” value was found to be 9.59.

With “TATATTATCAAAATGGTGCAATAATTTCTATATTAT [GTGCAC_site9772]”, the “gcPBM binding intensity (ln)” value was 9.09.

Consider “TCGTGGGAAAATATTACACACATTTACTATAGTATC [CACACA_site5836]”, for which the “gcPBM binding intensity (ln)” value came to 9.45.

For the sequence “TATTACAAATAATACCGTACACAAATGTTTTTTTAT [XGTACX_site7977]”, the “gcPBM binding intensity (ln)” value came to 9.23.

Take “ACTCTATACATCTAATGTACATGGAAAAAAAAATTC [XGTACX_site733]”: the “gcPBM binding intensity (ln)” value amounted to 9.18.

With “ACATTGACATGTCGAAGTACTCAAGAAGCATACAAT [XGTACX_site3948]”, the “gcPBM binding intensity (ln)” value was determined as 9.3.

As to “ATATAAATGATATGTACACACATTTATATTTATAAA [CACACA_site7600]”, the “gcPBM binding intensity (ln)” value was 9.28.

On to “ATTAAAATGGTATGTGCGCACATAATATATATATGT [GTGCAC_site9572]”, for which the “gcPBM binding intensity (ln)” value was 9.48.

With “TGGAAAATTATTAACACACACATATAAATATATATA [CACACA_site46]”, the “gcPBM binding intensity (ln)” value was found to be 9.74.

For the sequence GTAATAAGAATTATAGTGCAATGTAATACATTTATA, the “gcPBM binding intensity (ln)” value came to 9.23.

In the case of “TAATTTGAACGGTACAGTACTCTTTTTCTTTTTCAT [XGTACX_site5534]”, the “gcPBM binding intensity (ln)” value amounted to 9.4.

Consider “ATATATTTTTTCAATTGTACGTTTTAATAATATTTA [XGTACX_site2130]”, for which the “gcPBM binding intensity (ln)” value worked out at 9.5.

As for “AATACAACATAATGAAGTACTGTATTTTATATTACT [XGTACX_site4885]”, the “gcPBM binding intensity (ln)” value came to 9.29.

Turning to “ATGAAATCTTTAGAATATAGATGATGTTATTTAATT [XGTACX_negctrl_site511]”, the “gcPBM binding intensity (ln)” value turned out to be 8.96.

Turning to “TTTCTTTGAATAAATACACACGAGAAATGAAAGTAG [CACACA_site8490]”, the “gcPBM binding intensity (ln)” value turned out to be 9.53.

With “CTTTTATTGCTCTATATGCACACCTTAATTCTTCAT [CACACA_site2195]”, the “gcPBM binding intensity (ln)” value came out at 9.63.

Consider “GCAAAATTTCCTAAGGTGCTTTTATTTTACACCGTT [GTGCAC_site9923]”, for which the “gcPBM binding intensity (ln)” value amounted to 9.28.

For “AATGGGTTAGCACATACACACCAATATATTATAGAT [CACACA_site7444]”, the “gcPBM binding intensity (ln)” value stood at 9.51.

In the case of “AAAACCTAAAAGTCTTAAATTTTAAATATACCTACA [GTGCAC_negctrl_site492]”, the “gcPBM binding intensity (ln)” value worked out at 9.09.

“TTTATTACCATATTTTGTACACACATCTTTATCTCA [XGTACX_site6842]”: the “gcPBM binding intensity (ln)” value is 9.85.

As for “ATAAAAAATAAATAAGGTACAGAACATTTATACATT [XGTACX_site1783]”, the “gcPBM binding intensity (ln)” value was determined as 9.61.

As for “AAATTAAACAATAAATGTACATATATATTTGTATAT [XGTACX_site1092]”, the “gcPBM binding intensity (ln)” value stood at 9.2.

For “AACAAGGTATTAGGGTGTACTATATATATTTATATT [XGTACX_site7776]”, the “gcPBM binding intensity (ln)” value was 9.49.

As for “TAAAGGAGCCTATGAACACACACATGTACTTATATT [CACACA_site9351]”, the “gcPBM binding intensity (ln)” value worked out at 9.7.

On to “AATTGTTTGTTTGGGTGTACATGGTTCTATATAAAT [XGTACX_site7940]”, for which the “gcPBM binding intensity (ln)” value came out at 9.6.

On to “AATAAAATATAAACATTATATATATATATATATATA [GTGCAC_negctrl_site58]”, for which the “gcPBM binding intensity (ln)” value turned out to be 8.92.
